Source: the supplement of paper PMC11417369
± gives the standard deviation of the averaged measurements. The list shows a part of the results.

Each sequence was assayed on PfAP2-I AP2 domain 3 (GST-tagged) (assay: gcPBM binding intensity (ln(normalized median fluorescence intensity)); higher = stronger DNA binding).
In short: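 The binding buffer was 1× PBS containing 1% milk, 0.2 mg/ml BSA, 0.5% salmon testes DNA and 0.03% Triton X-100. In it, GST-tagged P. falciparum DNA-binding domains expressed in E. coli were applied for 1 h to an Agilent 4 × 180k array of primer-extended double-stranded 36-bp intergenic genomic probes plus negative controls. Binding intensity, read with Alexa488 anti-GST antibody and a 488 nm scan, is the highest Masliner-normalised natural-log median intensity across replicate spots of either probe orientation.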
For “ATGTTGTGGATATATACACACATACATATTTATATA [CACACA_site6857]”, the “gcPBM binding intensity (ln)” value was 7.8 ± 0.57. “TACAAGAACAAAAAATGTACGAAATAATTACAAATA [XGTACX_site5824]” was tested, and the “gcPBM binding intensity (ln)” value was 7.63 ± 0.69. With “AATCTTTTTAAATCTTGATTAATTTCGGGTATATAT [TGCATGCA_negctrl_site107]” the “gcPBM binding intensity (ln)” value was 7.78 ± 0.81. In the case of “AAAAAAAAAAAAAAAACACACAAACATCAAATTACT [CACACA_site6950]”, the “gcPBM binding intensity (ln)” value is reported as 8.73 ± 0.35. In the case of “AAATTTAAAAATAAAGAACACACATATGTAAAATAT [CACACA_site9252]”, the “gcPBM binding intensity (ln)” value is reported as 7.91 ± 0.76. In the case of “AATTTCAATTTCTGTTGTACACTTTTTAATAGTAAA [XGTACX_site4085]”, the “gcPBM binding intensity (ln)” value is reported as 8.13 ± 0.49. With “TATATACTATATATATGTACACAAAATTATTTTGAA [XGTACX_site8232]” the “gcPBM binding intensity (ln)” value was 7.91 ± 0.2. “ATATGTAGTGTTATTTGTTCATTGTTTTAATTTTTA [CACACA_negctrl_site1394]” was tested, and the “gcPBM binding intensity (ln)” value was 7.84 ± 0.61. With “TAATTATATAAATACACACACATACACCCAAATAAA [CACACA_site5819]” the “gcPBM binding intensity (ln)” value was 8.6 ± 0.13. “GAAAAAAAAATACATACACACAATATATTTATTTAT [CACACA_site3124]” was tested, and the “gcPBM binding intensity (ln)” value was 7.53 ± 0.45. “TATTATATATAATATTGTACATTAAAATATTAAAGA [XGTACX_site3698]” was tested, and the “gcPBM binding intensity (ln)” value was 7.78 ± 0.4. With “ATATGTATTAAGTGTACACATATAATGGGTTTTCTT [CACACA_site5328]” the “gcPBM binding intensity (ln)” value was 8.03 ± 0.57. “GGAACGTTCATATTTCCACACACAAAAAATAAATAT [CACACA_site9101]” was tested, and the “gcPBM binding intensity (ln)” value was 7.92 ± 0.61. With “TTTATTTTAAAATATAGTACGCAAATAAAAATAAAT [XGTACX_site7783]” the “gcPBM binding intensity (ln)” value was 8.34 ± 0.15. “TATAAATTTGTTCAATGTACATGTAAAGATATAATC [XGTACX_site371]” was tested, and the “gcPBM binding intensity (ln)” value was 8.04 ± 0.57. With “TGAAGCAAAAACAAAACACACATATAAATAAATAAA [CACACA_site3925]” the “gcPBM binding intensity (ln)” value was 7.89 ± 0.49. In the case of “TTATTTTTTATAAAATGTACATATATTTTAAATATA [XGTACX_site4026]”, the “gcPBM binding intensity (ln)” value is reported as 7.93 ± 0.16. “ACCAATCCAAAAGAATGTACCCATGTTTTAAAATAT [XGTACX_site2907]” was tested, and the “gcPBM binding intensity (ln)” value was 7.93 ± 0.42. “TTCGTATGCATGAAATGTACATGATATTATTATAAA [XGTACX_site4542]” was tested, and the “gcPBM binding intensity (ln)” value was 7.87 ± 0.49. In the case of “TTTTGTTAACATATAGAAAAGAACAAAGTTAAAAAG [XGTACX_negctrl_site462]”, the “gcPBM binding intensity (ln)” value is reported as 8 ± 0.61. For “TTAATTAAATATAGGGGTACATATTATATATGTTTT [XGTACX_site3677]”, the “gcPBM binding intensity (ln)” value was 7.76 ± 0.42. With “ACGAAAAGATATATATGTACATATATTAAAAAAAAA [XGTACX_site1517]” the “gcPBM binding intensity (ln)” value was 7.92 ± 0.56. In the case of AATATGGGCATACATGTGCACTTTTTCCCGTGGTTT, the “gcPBM binding intensity (ln)” value is reported as 9.56 ± 0.49. For “TTATATGCATATTTTTGTACACAACATTGTTGTATA [XGTACX_site8707]”, the “gcPBM binding intensity (ln)” value was 8.02 ± 0.6. With AAATATTTCTGCAAGGTGCACTTTATAAATCTTTGA the “gcPBM binding intensity (ln)” value was 10.7 ± 0.59. For “AAGAAATTTATTTATTGTACAATATATAATTTGTTT [XGTACX_site2478]”, the “gcPBM binding intensity (ln)” value was 7.59 ± 0.38. “ATGTATATTTTTATGTGTACGTAATAAAACATAATA [XGTACX_site7777]” was tested, and the “gcPBM binding intensity (ln)” value was 8.33 ± 0.27. For “TTATTTTTTTTTAGAGCACACATTTTTAATAAGGTA [CACACA_site2133]”, the “gcPBM binding intensity (ln)” value was 9.54 ± 0.2. In the case of “TGTACAAATATGTACACACACACATATTTATTTATA [CACACA_site6419]”, the “gcPBM binding intensity (ln)” value is reported as 8 ± 0.3. With “AAAAAACAAAAAAATACACACATAAAAAGGTTTTAG [CACACA_site3584]” the “gcPBM binding intensity (ln)” value was 7.86 ± 0.61. For “TAAACATAACAAAGGAGTACAAAACTTGATCAGTTC [XGTACX_site3114]”, the “gcPBM binding intensity (ln)” value was 7.69 ± 0.64. With “AAATATGTCAAATATACACACATAATAAATATAATA [CACACA_site2310]” the “gcPBM binding intensity (ln)” value was 7.97 ± 0.12. “TTATAAGATGATTATAAAATCAAATTCATTCTTTTA [CACACA_negctrl_site1338]” was tested, and the “gcPBM binding intensity (ln)” value was 7.13 ± 0.42. With “TATGTATAAAAATAATGTACAAAATATATTATATGT [XGTACX_site2794]” the “gcPBM binding intensity (ln)” value was 7.77 ± 0.55. With “ATACTATAATAATACACACTCATTAGATATATAAAG [CACACA_site7787]” the “gcPBM binding intensity (ln)” value was 7.83 ± 0.51. “AATAAATGGAAAAGGTGTACACAAAAAAAAGGGAAA [XGTACX_site4956]” was tested, and the “gcPBM binding intensity (ln)” value was 8.66 ± 0.7. For “AAAAAAAAAAAAAAAACATGCAGTTAGTGGTTTTTT [TGCATGCA_site243]”, the “gcPBM binding intensity (ln)” value was 8.62 ± 0.45. “CTTATATTTGGACACACACACAATAAAATGAAAAAA [CACACA_site6614]” was tested, and the “gcPBM binding intensity (ln)” value was 8.17 ± 0.35. For “AAATCTTCATAATAAAGTACTTAACTCTTGGTGTTA [XGTACX_site6112]”, the “gcPBM binding intensity (ln)” value was 7.43 ± 0.28. For “TACACAAGAAAATTCACACACACACCGATATATATA [CACACA_site6008]”, the “gcPBM binding intensity (ln)” value was 8.17 ± 0.67. For “GAAATGGGTAAACATACACACACACCGATATATATA [CACACA_site8610]”, the “gcPBM binding intensity (ln)” value was 8.26 ± 0.71. “TAACAATTATGCTGGTGTACGTTTGAAATTGGGTAT [XGTACX_site6846]” was tested, and the “gcPBM binding intensity (ln)” value was 8.2 ± 0.42. With “AAAAATTTCTATTTTTGTACTTACTTTTTAGTAATA [XGTACX_site5236]” the “gcPBM binding intensity (ln)” value was 7.54 ± 0.49. “AACATCAAAATATGCACACAAACAATTAGCGGTAGT [CACACA_site2521]” was tested, and the “gcPBM binding intensity (ln)” value was 8.84 ± 0.6. For “AAAAAAAAAGACAAAAGTACAAAGGTTCATAATTTA [XGTACX_site3978]”, the “gcPBM binding intensity (ln)” value was 7.52 ± 0.64. For “GATTTACATTTTGATGAAAATAATAAAATGTGGAAA [TGCATGCA_negctrl_site409]”, the “gcPBM binding intensity (ln)” value was 7.83 ± 0.82. With “ATATTTTATTTTTAAAGTACAAAAGAAAAGAATAAT [XGTACX_site8247]” the “gcPBM binding intensity (ln)” value was 7.91 ± 0.49. “CACAGACACGGACACACACACATATATATATATATA [CACACA_site5248]” was tested, and the “gcPBM binding intensity (ln)” value was 9.57 ± 0.49. With “AACAAAATAGGGAACACACACATGTCGATATATAAA [CACACA_site7265]” the “gcPBM binding intensity (ln)” value was 7.83 ± 0.47. For “ATACACACATATATGTGTACATATACATATATATAT [XGTACX_site6744]”, the “gcPBM binding intensity (ln)” value was 9.09 ± 0.071. “ATAATATGAAGAAGCACACTCAATTAAATACAGATA [CACACA_site4690]” was tested, and the “gcPBM binding intensity (ln)” value was 7.85 ± 0.55. With TTATGAATACTTCAAGTGCATTTATTTTATATGACA the “gcPBM binding intensity (ln)” value was 10.1 ± 0.48. With “ATATTCTAAATAAAGGGTACACAAAAATAATTAAAG [XGTACX_site5529]” the “gcPBM binding intensity (ln)” value was 8.29 ± 0.55. For “ATTGTGGATATTCTTACACACAAATTTATATATAAA [CACACA_site2601]”, the “gcPBM binding intensity (ln)” value was 7.62 ± 0.61. In the case of “TTTTGTATATTATATGTACACACAATAAGTTAATAT [CACACA_site8207]”, the “gcPBM binding intensity (ln)” value is reported as 8.05 ± 0.34. “TATTTGTAATATTATACACACATTATGTATTACAAA [CACACA_site3386]” was tested, and the “gcPBM binding intensity (ln)” value was 7.83 ± 0.53. For “ATATATATATAAAGCAGTACACACATTTATTTTAGA [XGTACX_site7226]”, the “gcPBM binding intensity (ln)” value was 9.24 ± 0.23.
